The source gives no read counts; variants with many changes may rest on few reads.
B1: OR4K15 (parent)
chain: GUUAACGGUCAUAGGCCAUGGAAACUAGGAGCACCAUUUCGCUGCCAGUGAAGAAAUGAACAAAGAAAAUCUGGGCCAGGCAGGCAUCAAAAGAAAUAGUCUUGCGCUCAACCAGAAAGUCUGUAAUCAUUUUAAGGGUA

Variants of: B1
Test: self-cleavage, relative activity (ratio to wild type); higher = more cleavage; in vitro, sequencing; the parent is a self-cleaving ribozyme

Row | Variant | self-cleavage
1 | U70A U87C A92U A110G A116G | 0.04
2 | U70C A78G A116G U127C | 0.29
3 | U70C A78U A117G | 0.13
4 | U70C A82U A111G A114G U122C | 0.01
5 | U70C A82U G83A | 0.27
6 | U70C A86G A94G | 0.31
7 | U70C A86G A95G U122C | 0.88
8 | U70C A89U A110G | 0.03
9 | U70C A90G U108C | 0.02
10 | U70C A92G U127C | 0.24
11 | U70C A95G A96U | 1.34
12 | U70C A95G A126C | 1.01
13 | U70C A95G A140G | 1.02
14 | U70C A95G U100C U122C A126G U131G | 1.16
15 | U70C A96G U122C | 0.07
16 | U70C A98G U108C A126G | 0.01
17 | U70C A111C A118G | 0
18 | U70C A111C U130C | 0.01
19 | U70C A114G U122C A126U | 0.07
20 | U70C A114U G137A | 0.01
21 | U70C A116G U124A | 0.96

Row | Variant | self-cleavage
22 | U70C A117G U122C | 0.36
23 | U70C A126U U132C | 0.77
24 | U70C C71U U124C | 0.1
25 | U70C G80A A114U A116U A135U | 0
26 | U70C G99U A118U | 0.03
27 | U70C G104U A110U | 0.01
28 | U70C G119A U122C | 0.93
29 | U70C U72A U102G U120A | 0.04
30 | U70C U87C A111G | 0.03
31 | U70C U87C U108A U132C | 0.02
32 | U70C U102A A117C | 0.02
33 | U70G A78U U102C U131C | 1.16
34 | U70G A82G U103C U120C | 1.47
35 | U70G A82G U132C | 0.21
36 | U70G A89G A96G U108A | 0.01
37 | C71A C113U A129C | 0.01
38 | C71U U72A A94G A110U | 0.09
39 | C71U U87C U133C | 0.41
40 | U72A A78G G83U | 0.16
41 | U72A A86U A96G | 0.07
42 | U72A A89G A94G | 0.24

Row | Variant | self-cleavage
43 | U72A A92G A111U | 0.02
44 | U72A A92G A116G U127C U130C | 0.03
45 | U72A A94G A135G | 0.24
46 | U72A A94G U97A | 0.32
47 | U72A A111G U127C | 0
48 | U72A A114G A117U | 0.54
49 | U72A A114G U127C | 0.04
50 | U72A A118G U127A A140C | 0.03
51 | U72A C88U A94G | 0.39
52 | U72A G106A G137A | 0.01
53 | U72A U108C A117G | 0.01
54 | U72C A78G U103C A110G A126C | 0
55 | U72C A78G U108C A114G | 0
56 | U72C A78G U127C | 0.18
57 | U72C A78U A91G | 0.06
58 | U72C A82U A114U | 0
59 | U72C A82U C112U A116G A117G | 0
60 | U72C A86G C109U | 0.06
61 | U72C A92U A126G A129G | 0.21
62 | U72C A94G C112A | 0.03
63 | U72C A96G U108C | 0

Row | Variant | self-cleavage
64 | U72C A96U U103C A116C U132C | 0
65 | U72C A98U U122C | 0.13
66 | U72C A129G G136U | 0.06
67 | U72C C76U A116U | 0.04
68 | U72C C121A A140G | 0.6
69 | U72C U87C A91U C101G A114G | 0.45
70 | U72C U87C C121A U133C | 0.89
71 | U72C U87C U130C | 0.07
72 | U72C U100C A110G | 0.07
73 | U72C U100C A117G | 0.12
74 | U72C U100C U124A | 0.46
75 | U72C U108A A126G G136U | 0.03
76 | U72C U108C U131C | 0
77 | U72G A94G U97C U133C | 0.1
78 | G73A A92G A135U | 0.14
79 | G73A A96G U103A | 0.09
80 | G73A U100C U102C U103A A129G | 0
81 | G73U G79A A86U A94G | 0.08
82 | G74A A78G A126G | 0.15
83 | G74A A86G A114G | 0.04
84 | G74A A86G U97A A116G | 0.11

— the RNAGym collection of RNA variant scans (doi:10.7554/elife.90254)
